Test results taken from patent publication US20190169308A1 (ALLIGATOR BIOSCIENCE, published 2019).

Target: T1, recombinant human CD137-Fc (R&D #838-4B) (human, UniProt Q07011 24-186)
T1 construct: bought; also called CD137 (R&D #838-4B); not shown: Fc part, bought reagent, not described
Assay: BLI Octet, bsAb on anti-Fab-CH1 tips, CD137-Fc as analyte

T1 sequence (Q07011 24-186 limits assumed): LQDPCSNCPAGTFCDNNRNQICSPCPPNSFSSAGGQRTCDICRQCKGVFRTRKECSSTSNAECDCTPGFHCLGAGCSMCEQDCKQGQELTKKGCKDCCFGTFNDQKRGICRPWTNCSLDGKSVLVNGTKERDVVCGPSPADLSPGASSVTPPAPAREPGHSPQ

Row | Kd [nM] | koff [s⁻¹] | kon [M⁻¹ s⁻¹] | Binder
1 | 2.57 | 0.000768 | 299000 | 1210-1618LO6 (bispecific antibody, human IgG1, kappa) heavy: [no letters for about 100 residues]YYGGYYSAWMDYWGQGTLVTVSS[no letters for human IgG1 constant region with changes]GGGGSGGGGSEVQLLESGGGLVQPGGSLRLSCAASGFTFDYGSMYWVRQAPGKGLEWVSSISSGSGSTYYADSVKGRFTISRDNSKNTLYLQMNSLRAEDTAVYYCARSSYYGSYYSIDYWGQGTLVTVSSGGGGSGGGGSGGGGSDIQMTQSPSSLSASVGDRVTITCRASQSIRQYLNWYQQKPGKAPKLLIYGASSLQSGVPSRFSGSGSGTDFTLTISSLQPEDFATYYCQQYYDNLPTFGQGTKLEIK light: DIQMTQSPSSLSASVGDRVTITCRASQSISSYLNWYQQKPGKAPKLLIYAASSLQSGVPSRFSGSGSGTDFTLTISSLQPEDFATYYCQQTYGYLHTFGQGTKLEIKRTVAAPSVFIFPPSDEQLKSGTASVVCLLNNFYPREAKVQWKVDNALQSGNSQESVTEQDSKDSTYSLSSTLTLSKADYEKHKVYACEVTHQGLSSPVTKSFNRGEC
2 | 1.64 | 0.000461 | 281000 | 1210-1618LO2 (bispecific antibody, human IgG1, kappa) heavy: [no letters for about 100 residues]YYGGYYSAWMDYWGQGTLVTVSS[no letters for human IgG1 constant region with changes]GGGGSGGGGSEVQLLESGGGLVQPGGSLRLSCAASGFTFSYGSMYWVRQAPGKGLEWVSSISSGSGSTHYADSVKGRFTISRDNSKNTLYLQMNSLRAEDTAVYYCARSSYYGSYYSIDYWGQGTLVTVSSGGGGSGGGGSGGGGSDIQMTQSPSSLSASVGDRVTITCRASQSIRQYLNWYQQKPGKAPKLLIYSADSLQSGVPSRFSGSGSGTDFTLTISSLQPEDFATYYCQQYYDNLPTFGQGTKLEIK light: DIQMTQSPSSLSASVGDRVTITCRASQSISSYLNWYQQKPGKAPKLLIYAASSLQSGVPSRFSGSGSGTDFTLTISSLQPEDFATYYCQQTYGYLHTFGQGTKLEIKRTVAAPSVFIFPPSDEQLKSGTASVVCLLNNFYPREAKVQWKVDNALQSGNSQESVTEQDSKDSTYSLSSTLTLSKADYEKHKVYACEVTHQGLSSPVTKSFNRGEC
3 | 2.38 | 0.000687 | 289000 | 1210-1618LO4 (bispecific antibody, human IgG1, kappa) heavy: [no letters for about 100 residues]YYGGYYSAWMDYWGQGTLVTVSS[no letters for human IgG1 constant region with changes]GGGGSGGGGSEVQLLESGGGLVQPGGSLRLSCAASGFTFDYGSMYWVRQAPGKGLEWVSSISSGSGSTYYADSVKGRFTISRDNSKNTLYLQMNSLRAEDTAVYYCARSSYYGSYYSIDYWGQGTLVTVSSGGGGSGGGGSGGGGSDIQMTQSPSSLSASVGDRVTITCRASQSISQYLNWYQQKPGKAPKLLIYSAESLQSGVPSRFSGSGSGTDFTLTISSLQPEDFATYYCQQYYDNLPTFGQGTKLEIK light: DIQMTQSPSSLSASVGDRVTITCRASQSISSYLNWYQQKPGKAPKLLIYAASSLQSGVPSRFSGSGSGTDFTLTISSLQPEDFATYYCQQTYGYLHTFGQGTKLEIKRTVAAPSVFIFPPSDEQLKSGTASVVCLLNNFYPREAKVQWKVDNALQSGNSQESVTEQDSKDSTYSLSSTLTLSKADYEKHKVYACEVTHQGLSSPVTKSFNRGEC
4 | 2.56 | 0.000672 | 262000 | 1210-1618LO5 (bispecific antibody, human IgG1, kappa) heavy: [no letters for about 100 residues]YYGGYYSAWMDYWGQGTLVTVSS[no letters for human IgG1 constant region with changes]GGGGSGGGGSEVQLLESGGGLVQPGGSLRLSCAASGFTFDYGSMYWVRQAPGKGLEWVSSISSGSGSTYYADSVKGRFTISRDNSKNTLYLQMNSLRAEDTAVYYCARSSYYGSYYSIDYWGQGTLVTVSSGGGGSGGGGSGGGGSDIQMTQSPSSLSASVGDRVTITCRASQSIRSYLNWYQQKPGKAPKLLIYSASSLQSGVPSRFSGSGSGTDFTLTISSLQPEDFATYYCQQYYDNLPTFGQGTKLEIK light: DIQMTQSPSSLSASVGDRVTITCRASQSISSYLNWYQQKPGKAPKLLIYAASSLQSGVPSRFSGSGSGTDFTLTISSLQPEDFATYYCQQTYGYLHTFGQGTKLEIKRTVAAPSVFIFPPSDEQLKSGTASVVCLLNNFYPREAKVQWKVDNALQSGNSQESVTEQDSKDSTYSLSSTLTLSKADYEKHKVYACEVTHQGLSSPVTKSFNRGEC
5 | 2.86 | 0.000814 | 285000 | 1210-1618LO7 (bispecific antibody, human IgG1, kappa) heavy: [no letters for about 100 residues]YYGGYYSAWMDYWGQGTLVTVSS[no letters for human IgG1 constant region with changes]GGGGSGGGGSEVQLLESGGGLVQPGGSLRLSCAASGFTFDYGSMYWVRQAPGKGLEWVSSISSGSGSTYYADSVKGRFTISRDNSKNTLYLQMNSLRAEDTAVYYCARSSYYGSYYSIDYWGQGTLVTVSSGGGGSGGGGSGGGGSDIQMTQSPSSLSASVGDRVTITCRASQSISSYLNWYQQKPGKAPKLLIYAASSLQSGVPSRFSGSGSGTDFTLTISSLQPEDFATYYCQQYYDNLPTFGQGTKLEIK light: DIQMTQSPSSLSASVGDRVTITCRASQSISSYLNWYQQKPGKAPKLLIYAASSLQSGVPSRFSGSGSGTDFTLTISSLQPEDFATYYCQQTYGYLHTFGQGTKLEIKRTVAAPSVFIFPPSDEQLKSGTASVVCLLNNFYPREAKVQWKVDNALQSGNSQESVTEQDSKDSTYSLSSTLTLSKADYEKHKVYACEVTHQGLSSPVTKSFNRGEC
6 | 2.98 | 0.000653 | 219000 | 1210-1618LO8 (bispecific antibody, human IgG1, kappa) heavy: [no letters for about 100 residues]YYGGYYSAWMDYWGQGTLVTVSS[no letters for human IgG1 constant region with changes]GGGGSGGGGSEVQLLESGGGLVQPGGSLRLSCAASGFTFDYGSMYWVRQAPGKGLEWVSSISSGSGSTHYADSVKGRFTISRDNSKNTLYLQMNSLRAEDTAVYYCARSSYYGSYYSIDYWGQGTLVTVSSGGGGSGGGGSGGGGSDIQMTQSPSSLSASVGDRVTITCRASQSIRSYLNWYQQKPGKAPKLLIYGADSLQSGVPSRFSGSGSGTDFTLTISSLQPEDFATYYCQQYYDNLPTFGQGTKLEIK light: DIQMTQSPSSLSASVGDRVTITCRASQSISSYLNWYQQKPGKAPKLLIYAASSLQSGVPSRFSGSGSGTDFTLTISSLQPEDFATYYCQQTYGYLHTFGQGTKLEIKRTVAAPSVFIFPPSDEQLKSGTASVVCLLNNFYPREAKVQWKVDNALQSGNSQESVTEQDSKDSTYSLSSTLTLSKADYEKHKVYACEVTHQGLSSPVTKSFNRGEC
7 | 3.24 | 0.00108 | 332000 | 1210-1618LO9 (bispecific antibody, human IgG1, kappa) heavy: [no letters for about 100 residues]YYGGYYSAWMDYWGQGTLVTVSS[no letters for human IgG1 constant region with changes]GGGGSGGGGSEVQLLESGGGLVQPGGSLRLSCAASGFDFSYGSMYWVRQAPGKGLEWVSSISSGSGSTYYADSVKGRFTISRDNSKNTLYLQMNSLRAEDTAVYYCARSSYYGSYYSIDYWGQGTLVTVSSGGGGSGGGGSGGGGSDIQMTQSPSSLSASVGDRVTITCRASQSIRQYLNWYQQKPGKAPKLLIYGAESLQSGVPSRFSGSGSGTDFTLTISSLQPEDFATYYCQQYYDNLPTFGQGTKLEIK light: DIQMTQSPSSLSASVGDRVTITCRASQSISSYLNWYQQKPGKAPKLLIYAASSLQSGVPSRFSGSGSGTDFTLTISSLQPEDFATYYCQQTYGYLHTFGQGTKLEIKRTVAAPSVFIFPPSDEQLKSGTASVVCLLNNFYPREAKVQWKVDNALQSGNSQESVTEQDSKDSTYSLSSTLTLSKADYEKHKVYACEVTHQGLSSPVTKSFNRGEC
